Source: US9085549B2, “Compounds for the treatment of neurodegenerative diseases” (ProteoTech Inc., priority 2011, dated 2015)
Where two headings read alike, the source gives them in different places. At least one compound was matched to its structure with a doubt left. Some compounds share one wording; it may come from a single statement.

What was measured:
[1] = target: α-synuclein (Homo sapiens (Human), UniProt P37840); assay: Circular dichroism spectroscopy: inhibition of α-synuclein β-sheet formation; type: biochemical; conditions: moles of compound per mole of α-synuclein, 69 μM α-synuclein, 24 hours
Description: For this purpose, α-synuclein was obtained from rPeptide as a lyophilized salt in 1 mg aliquots. Buffer components and other solvents were obtained from Sigma as A.C.S. Reagent grade or higher. […] After 24 hours, reactions were diluted 20-fold in PBS and CD spectra for each reaction were acquired on a Jasco J-810 spectropolarimeter using a 0.1 cm path length cell. All spectra were recorded with a step size of 0.1 nm, a bandwidth of 1 nm, and an α-synuclein concentration of 0.05 mg/ml. The spectra were trimmed at the shortest wavelength that still provided a dynode voltage less than 600V. The trimmed spectra were then subjected to a data processing routine beginning with noise reduction by Fourier transform followed by subtraction of a blank spectrum (vehicle only without α-synuclein). These blank corrected spectra were then zeroed at 260 nm and the units converted from millidegrees to specific ellipticity.
These percent β-sheet values were then used to provide the respective relative % inhibition of β-sheet induced by the compounds at given molar ratio of test compound:α-synuclein.

[2] = target: T1, α-synuclein fibrils (Homo sapiens (Human), UniProt P37840); assay: Thioflavin T fluorometry: disruption/disaggregation of pre-formed α-synuclein fibrils; type: biochemical; conditions: for EC50 (mole ratio): Thioflavin T fluorescence, moles of test compound per mole of α-synuclein, 6.9 μM pre-formed fibrils, 2 days; for disruption/disassembly of preformed α-synuclein fibrils (in words): molar ratios 50:1 to 0.01:1
Description: The biological activity of the compounds provided herein as disruptors/inhibitors of Parkinson's disease α-synuclein fibrils was assessed by determining the efficacy of the compounds to cause a disassembly/disruption of pre-formed Parkinson's disease α-synuclein fibrils. In one study, Thioflavin T fluorometry was used to determine the effects of the compounds, and […]).
In one study, Thioflavin T fluorometry was used to determine the effects of the compounds on α-synuclein fibrils. In addition to test compounds, this experiment included a positive control compound and a negative control compound for reference.
For each compound, the % inhibition of Thioflavin T fluorescence (i.e. the decrease compared to control reactions containing α-synuclein alone) was plotted against the log of the concentration of the test compound (expressed as mole ratio relative to α-synuclein).

[3] = system: A53T α-synuclein-expressing BE-M17 cells; assay: XTT assay: rotenone-induced cell death; type: cell-based, human; conditions: 500 nM rotenone
[4] = target: T1, α-synuclein fibrils; conditions: Congo red binding; moles of test compound per mole of α-synuclein; 2 days
[5] = target: amyloid-β peptide of Alzheimer's disease (Homo sapiens (Human), UniProt P05067); assay: Binding to amyloid-β peptide (not shown)
[6] = target: TauRD (Homo sapiens (Human), UniProt P10636); assay: Circular dichroism spectroscopy: tau protein β-sheet formation; conditions: semi-quantitative CD score, aggregated TauRD
[7] = system: BE-M17 human neuroblastoma cells stably transfected with A53T-mutant human α-synuclein; assay: Thioflavin S staining of rotenone-induced α-synuclein aggregates in cells; type: cell-based; conditions: at given concentrations

TauRD, sequence (P10636 561-689): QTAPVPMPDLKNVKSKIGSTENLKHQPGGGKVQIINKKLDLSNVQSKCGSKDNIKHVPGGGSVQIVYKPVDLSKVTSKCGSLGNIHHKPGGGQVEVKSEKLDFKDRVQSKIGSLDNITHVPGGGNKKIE
amyloid-β peptide of Alzheimer's disease, sequence (P05067 672-713): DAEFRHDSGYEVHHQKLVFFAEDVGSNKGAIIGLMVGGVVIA

## Oc1ccc(-c2cnc(-c3ccc(O)c(O)c3)s2)cc1O [SA-64]
[1]
  IC50 (mole ratio): 0.56 mole ratio
[2]
  EC50 (mole ratio): 0.39 mole ratio
  disruption/disassembly of preformed α-synuclein fibrils (in words): dose-dependent and extensive disruption/disassembly
[3]
  inhibition of rotenone-induced cell death (in words): significant, dose-dependent inhibition
[4]
  EC50 (mole ratio): 2.3 mole ratio
[5]
  binding affinity for the amyloid-β peptide (in words): does not show significant binding affinity
[6]
  CD: −

## Oc1ccc(Cc2cc(O)c(O)cc2O)cc1O [SA-97]
[2]
  disruption/disassembly of preformed α-synuclein fibrils (in words): dose-dependent and extensive disruption/disassembly
[3]
  inhibition of rotenone-induced cell death (in words): significant, dose-dependent inhibition

## O=C(/C=C/c1cc(O)c(O)cc1Br)c1ccc(O)c(O)c1 [SA-95]
[1]
  IC50 (mole ratio): 0.68 mole ratio
[7]
  inhibition of rotenone-induced Thioflavin S-positive inclusions (in words): significant disruption/prevention/inhibition
[2]
  EC50 (mole ratio): 0.16 mole ratio
  disruption/disassembly of preformed α-synuclein fibrils (in words): dose-dependent and extensive disruption/disassembly
[3]
  inhibition of rotenone-induced cell death (in words): significant, dose-dependent inhibition
[4]
  EC50 (mole ratio): 4.5 mole ratio
[6]
  CD: +

## Oc1ccc(Cc2cc(O)c(O)cc2I)cc1O [SA-93]
[1]
  IC50 (mole ratio): 0.38 mole ratio
[7]
  inhibition of rotenone-induced Thioflavin S-positive inclusions (in words): significant disruption/prevention/inhibition
[2]
  EC50 (mole ratio): 0.16 mole ratio
  disruption/disassembly of preformed α-synuclein fibrils (in words): dose-dependent and extensive disruption/disassembly
[3]
  inhibition of rotenone-induced cell death (in words): significant, dose-dependent inhibition
[4]
  EC50 (mole ratio): 1.9 mole ratio

## O=[N+]([O-])c1cc(-c2ccc(O)c(O)c2)ccc1-c1ccc(O)c(O)c1 [SA-99]
[1]
  IC50 (mole ratio): 2.08 mole ratio
[2]
  EC50 (mole ratio): 0.65 mole ratio
  disruption/disassembly of preformed α-synuclein fibrils (in words): dose-dependent and extensive disruption/disassembly
[4]
  EC50 (mole ratio): 14.2 mole ratio
[6]
  CD: +

## Oc1ccc(-c2nc3cc(O)c(O)cc3o2)cc1O [SA-54]
[1]
  IC50 (mole ratio): 0.55 mole ratio
[7]
  inhibition of rotenone-induced Thioflavin S-positive inclusions (in words): significant disruption/prevention/inhibition
[2]
  EC50 (mole ratio): 0.74 mole ratio
  disruption/disassembly of preformed α-synuclein fibrils (in words): dose-dependent and extensive disruption/disassembly
[4]
  EC50 (mole ratio): 15.9 mole ratio
[6]
  CD: −

## Oc1ccc(-c2nnc(-c3ccc(O)c(O)c3)o2)cc1O [SA-67]
[7]
  inhibition of rotenone-induced Thioflavin S-positive inclusions (in words): significant disruption/prevention/inhibition
[2]
  disruption/disassembly of preformed α-synuclein fibrils (in words): dose-dependent and extensive disruption/disassembly
[3]
  inhibition of rotenone-induced cell death (in words): significant, dose-dependent inhibition

## Oc1ccc(-c2nsc(-c3ccc(O)c(O)c3)n2)cc1O [SA-57]
[6]
  CD: −

## Oc1ccc(-c2cn(-c3ccc(O)c(O)c3)nn2)cc1O [SA-68]
[7]
  inhibition of rotenone-induced Thioflavin S-positive inclusions (in words): significant disruption/prevention/inhibition
[3]
  inhibition of rotenone-induced cell death (in words): significant, dose-dependent inhibition
